# The supplement of paper PMC10037445
# Several values for one entry are separate records, joined by “and”; a condition that tells them apart may be missing. Equal values may be shown once. In all, about 2,900 compounds were measured (“IRF Lucia reporter activity, fold change vs agonist alone”: median about 0.9, highest 2% from about 2.8 on). The list shows a part of the results.
# Experiments:
# RAW-Dual [1] = assay: IRF Lucia reporter activity, fold change vs agonist alone; higher = enhanced IRF activity; conditions: agonist: MPLA (TLR4) […]
# Summary of the method: (§1)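 Reporter activity is given as fold change relative to agonist-alone wells. To measure it, 50 nL of library stock was pin-tooled onto RAW-Dual macrophages (50,000 cells/well, DMEM, 384-well plates), a PRR agonist followed 1 h later, and cells stayed at 37 °C, 5% CO2. Twenty hours on, supernatant was assayed for IRF (QuantiLuc luminescence) and NF-κB (QuantiBlue, 620 nm absorbance), and wells under 70% of agonist-control IncuCyte confluency in both mask sets were marked cytotoxic.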
# RAW-Dual [2] = assay: IRF Lucia reporter activity, fold change vs agonist alone; cytotoxicity flag (confluency mask): not cytotoxic; higher = enhanced IRF activity
# Summary of the method: as §1
# RAW-Dual [3] = assay: IRF Lucia reporter activity, fold change vs agonist alone; cytotoxicity flag (confluency mask): cytotoxic (confluency <70% of control); higher = enhanced IRF activity
# Summary of the method: as §1
# [4] = library stock concentration (final ~1000-fold dilution): 10 mM, cytotoxicity flag (confluency mask): not cytotoxic
# [5] = agonist: 3'3'-cGAMP (STING) 10 ug/mL
smiles,measurement,setting,value
O=C(CCc1ccc(O)cc1)c1c(O)cc(O)cc1OC1OC(CO)C(O)C(O)C1O (centres undefined),IRF Lucia reporter activity,RAW-Dual [1]; [4],1.03
O=C(CCc1ccc(O)cc1)c1c(O)cc(O)cc1OC1OC(CO)C(O)C(O)C1O (centres undefined) (library stock concentration (final ~1000-fold dilution): 10 mM),IRF Lucia reporter activity,RAW-Dual [2]; [5],0.922
same,IRF Lucia reporter activity,RAW-Dual [2]; agonist: LPS (TLR4) 0.1 ug/mL,1.05
CC(C)NCC(O)COc1cccc2ccccc12.Cl (centres undefined),IRF Lucia reporter activity,RAW-Dual [1]; [4],1.15
CC(C)NCC(O)COc1cccc2ccccc12.Cl (centres undefined) (library stock concentration (final ~1000-fold dilution): 10 mM),IRF Lucia reporter activity,RAW-Dual [2]; [5],0.809
same,IRF Lucia reporter activity,RAW-Dual [2]; agonist: LPS (TLR4) 0.1 ug/mL,1.23
Cc1c(NC(=O)OCC2COCCN2)cn2ncnc(Nc3ccc4c(cnn4Cc4cccc(F)c4)c3)c12 (centres undefined) (library stock concentration (final ~1000-fold dilution): 10 mM),IRF Lucia reporter activity,RAW-Dual [2]; [5],0.267
same,IRF Lucia reporter activity,RAW-Dual [2]; agonist: LPS (TLR4) 0.1 ug/mL,1.28
Cc1c(NC(=O)OCC2COCCN2)cn2ncnc(Nc3ccc4c(cnn4Cc4cccc(F)c4)c3)c12 (centres undefined),IRF Lucia reporter activity,RAW-Dual [1]; [4],1.3
CCCCc1oc2ccc(NS(C)(=O)=O)cc2c1C(=O)c1ccc(OCCCN(CCCC)CCCC)cc1.Cl (library stock concentration (final ~1000-fold dilution): 10 mM),IRF Lucia reporter activity,RAW-Dual [2]; [5],1.06
same,IRF Lucia reporter activity,RAW-Dual [2]; agonist: LPS (TLR4) 0.1 ug/mL,0.105
CCCCc1oc2ccc(NS(C)(=O)=O)cc2c1C(=O)c1ccc(OCCCN(CCCC)CCCC)cc1.Cl,IRF Lucia reporter activity,RAW-Dual [1]; [4],1.12
CNC(=O)c1cc(Oc2ccc(NC(=O)Nc3ccc(Cl)c(C(F)(F)F)c3)c(F)c2)ccn1,IRF Lucia reporter activity,RAW-Dual [1]; [4],0.63
CNC(=O)c1cc(Oc2ccc(NC(=O)Nc3ccc(Cl)c(C(F)(F)F)c3)c(F)c2)ccn1 (library stock concentration (final ~1000-fold dilution): 10 mM),IRF Lucia reporter activity,RAW-Dual [2]; [5],0.331
same,IRF Lucia reporter activity,RAW-Dual [2]; agonist: LPS (TLR4) 0.1 ug/mL,0.588
NC(=O)Nc1cc(-c2cccc(F)c2)sc1C(=O)NC1CCCNC1 (centres undefined) (library stock concentration (final ~1000-fold dilution): 10 mM),IRF Lucia reporter activity,RAW-Dual [2]; [5],0.0411
same,IRF Lucia reporter activity,RAW-Dual [2]; agonist: LPS (TLR4) 0.1 ug/mL,0.135
NC(=O)Nc1cc(-c2cccc(F)c2)sc1C(=O)NC1CCCNC1 (centres undefined),IRF Lucia reporter activity,RAW-Dual [1]; [4],0.178
Cl.OC(CNCC(O)C1CCc2cc(F)ccc2O1)C1CCc2cc(F)ccc2O1 (centres undefined),IRF Lucia reporter activity,"RAW-Dual [1]; library stock concentration (final ~1000-fold dilution): 10 mM, cytotoxicity flag (confluency mask): cytotoxic (confluency <70% of control)",1.27
Cl.OC(CNCC(O)C1CCc2cc(F)ccc2O1)C1CCc2cc(F)ccc2O1 (centres undefined) (library stock concentration (final ~1000-fold dilution): 10 mM),IRF Lucia reporter activity,RAW-Dual [3]; [5],0.599
same,IRF Lucia reporter activity,RAW-Dual [3]; agonist: LPS (TLR4) 0.1 ug/mL,1.15
CN(C)CCOC(c1ccccc1)c1ccccc1.Cl,IRF Lucia reporter activity,RAW-Dual [1]; [4],0.719
CN(C)CCOC(c1ccccc1)c1ccccc1.Cl (library stock concentration (final ~1000-fold dilution): 10 mM),IRF Lucia reporter activity,RAW-Dual [2]; [5],0.97
same,IRF Lucia reporter activity,RAW-Dual [2]; agonist: LPS (TLR4) 0.1 ug/mL,0.943
CC(C)=CCc1c(O)ccc(C(=O)/C=C/c2ccc(O)cc2)c1O (library stock concentration (final ~1000-fold dilution): 10 mM),IRF Lucia reporter activity,RAW-Dual [3]; [5],0.0218
same,IRF Lucia reporter activity,RAW-Dual [3]; agonist: LPS (TLR4) 0.1 ug/mL,0.114
NC(CSCCB(O)O)C(=O)O (centres undefined) (library stock concentration (final ~1000-fold dilution): 10 mM),IRF Lucia reporter activity,RAW-Dual [2]; [5],1.1
same,IRF Lucia reporter activity,RAW-Dual [2]; agonist: LPS (TLR4) 0.1 ug/mL,1.28
CN1CC(=O)N2C(Cc3c([nH]c4ccccc34)C2c2ccc3c(c2)OCO3)C1=O (centres undefined) (library stock concentration (final ~1000-fold dilution): 10 mM),IRF Lucia reporter activity,RAW-Dual [2]; [5],0.888
same,IRF Lucia reporter activity,RAW-Dual [2]; agonist: LPS (TLR4) 0.1 ug/mL,0.579
CN1CC(=O)N2C(Cc3c([nH]c4ccccc34)C2c2ccc3c(c2)OCO3)C1=O (centres undefined),IRF Lucia reporter activity,RAW-Dual [1]; [4],0.613
CN1C2CCCC1CC(NC(=O)c1nn(C)c3ccccc13)C2.Cl (centres undefined) (library stock concentration (final ~1000-fold dilution): 10 mM water),IRF Lucia reporter activity,RAW-Dual [2]; [5],0.867
same,IRF Lucia reporter activity,RAW-Dual [2]; agonist: LPS (TLR4) 0.1 ug/mL,0.867
CN1C2CCCC1CC(NC(=O)c1nn(C)c3ccccc13)C2.Cl (centres undefined),IRF Lucia reporter activity,"RAW-Dual [1]; library stock concentration (final ~1000-fold dilution): 10 mM water, cytotoxicity flag (confluency mask): not cytotoxic",1.2
CS(=O)(=O)O.Cc1c(O)cccc1C(=O)NC(CSc1ccccc1)C(O)CN1CC2CCCCC2CC1C(=O)NC(C)(C)C (centres undefined),IRF Lucia reporter activity,RAW-Dual [1]; [4],2.24
CS(=O)(=O)O.Cc1c(O)cccc1C(=O)NC(CSc1ccccc1)C(O)CN1CC2CCCCC2CC1C(=O)NC(C)(C)C (centres undefined) (library stock concentration (final ~1000-fold dilution): 10 mM),IRF Lucia reporter activity,RAW-Dual [2]; [5],0.918
same,IRF Lucia reporter activity,RAW-Dual [2]; agonist: LPS (TLR4) 0.1 ug/mL,3.62
COc1ccc2c(c1)c(CC(=O)O)c(C)n2C(=O)c1ccc(Cl)cc1 (library stock concentration (final ~1000-fold dilution): 10 mM),IRF Lucia reporter activity,RAW-Dual [2]; [5],1.07 and 1.03
same,IRF Lucia reporter activity,RAW-Dual [2]; agonist: LPS (TLR4) 0.1 ug/mL,1.28 and 0.991
Nc1nc2ccc(OC(F)(F)F)cc2s1 (library stock concentration (final ~1000-fold dilution): 10 mM),IRF Lucia reporter activity,RAW-Dual [2]; [5],0.961
same,IRF Lucia reporter activity,RAW-Dual [2]; agonist: LPS (TLR4) 0.1 ug/mL,0.869
Nc1nc2ccc(OC(F)(F)F)cc2s1,IRF Lucia reporter activity,RAW-Dual [1]; [4],1.02
CNC(=O)c1cc(Oc2ccc(NC(=O)Nc3cc(C(C)(C)C)nn3-c3ccc4ncccc4c3)c(F)c2)ccn1 (library stock concentration (final ~1000-fold dilution): 10 mM),IRF Lucia reporter activity,RAW-Dual [2]; [5],1.05
same,IRF Lucia reporter activity,RAW-Dual [2]; agonist: LPS (TLR4) 0.1 ug/mL,0.0221
